Data: the supplement of paper PMC4723716
The full ranking holds about 3,600 compounds; the median of “viability index relative to DMSO control” is about 0.81, and the lowest 2% start at about 0.13. The list shows a part of the results.

What follows are compounds tested on Plasmodium falciparum NF54 stage V gametocytes (assay: viability index relative to DMSO control (fraction); higher = less gametocyte killing). Conditions: 1.25 µM, incubation time: 72 h.
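Further: 384-well serum-free SaLSSA: MitoTracker Red CMXRos staining with saponin lysis, high-content imaging, treated-well particle count divided by plate-mean count of DMSO wells.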

Going from `C=C(c1ccccc1)[n+]1ccc(C=Cc2ccccc2O)cc1` to `Cc1n(N)c2ccccc2[n+]1CC(=O)c1ccccc1`, the viability index rises from 0.871 to 0.949.

Going from `O=C1NC(=S)NC1=Cc1cccc(Oc2ccccc2)c1` to `COc1ccc(C=C2SC(=Nc3ccccc3)NC2=O)cc1`, the viability index falls from 0.638 to 0.634.

First: CCC(=O)NC(c1ccccc1Cl)c1cc(Cl)c2cccnc2c1O (stereo not given)
Second: O=C(Cc1ccccc1)NC(c1ccccc1)c1ccc2cccnc2c1O (stereo not given)
The viability index of the first is lower: 0.86 for the first, 1.19 for the second.

First: COc1cc(OC)cc(C(=O)NCc2n[nH]c(=S)n2-c2cccc(Cl)c2)c1
Second: COC(=O)c1c(-c2c(F)cccc2Cl)noc1C=CNc1ccc(OC)cc1
The viability index of the first is lower: 0.626 for the first, 1.03 for the second.

Compared with `COc1ccc(NC(=O)C2c3ccccc3C(=O)N(CC(C)C)C2c2cccs2)cc1OC` (stereo not given), `COc1ccc(C2CC(=O)C3=C(C2)NC(C)=C(C(=O)OC(C)C)C3c2cccc(Cl)c2)cc1OC` (stereo not given) is higher in viability index: 0.0723 for the first, 0.838 for the second.

Going from `Cn1nc(-c2ccccc2)c2c(C(=O)C(F)(F)F)cc(C(=O)C(F)(F)F)c-2c1-c1ccccc1` to `CCn1c2ccccc2c2cc(C=NNC(=O)c3nnn(-c4nonc4N)c3-c3ccccc3)ccc21`, the viability index rises from 0.917 to 1.28.

Compared with `COc1cc(NC(C)CCCN(Cc2ccc(Cl)cc2)C(=O)C(C)C)c2ncccc2c1` (stereo not given), `CC(C)CCNCC(O)Cn1c2ccc(Cl)cc2c2cc(Cl)ccc21` (stereo not given) is lower in viability index: 0.827 for the first, 0.286 for the second.

First: N#CC1=C(N)Oc2c3c(c4ccccc4c2C1c1ccc(F)cc1)C(c1ccc(F)cc1)C(C#N)=C(N)O3 (stereo not given)
Second: Cc1ccc(-c2c3c(nc4sc(C(=O)Nc5ccc(F)cc5)c(N)c24)CCC3)cc1
The viability index of the first is higher: 0.813 for the first, 0.636 for the second.

Going from `O=c1c2c([nH]c3ccccc13)CCCC2` to `O=c1c2c([nH]c3ccccc13)CCCCCC2`, the viability index rises from 0.535 to 0.751.

Compared with `CC(Cl)=CCc1c(C)nc2c(ccc3ccccc32)c1O`, `Cc1nc2c(C)cccc2c(O)c1CC=C(Cl)Cl` is higher in viability index: 0.527 for the first, 0.759 for the second.

First: C=CCn1c(=O)c(C(=O)NCC[N+](CC)(CC)CC=C)c(O)c2ccccc21
Second: COCCCNC(=O)CSCc1nc(-c2ccccc2F)oc1C
The viability index of the first is lower: 0.631 for the first, 1.02 for the second.

First: CCOc1ccc2[nH]c3c(NCCN(C)C)ncnc3c2c1
Second: CCOc1cccc(Nc2cc(C)nc3ncnn23)c1
The viability index of the first is higher: 0.933 for the first, 0.656 for the second.

Compared with `Cc1ccc(NC(=O)c2sc3nc4c(c(-c5ccc(C)cc5)c3c2N)CCC4)cc1`, `COc1ccccc1NC(=O)Cn1cnc2sc(C(=O)Nc3ccc(F)cc3)c(C)c2c1=O` is higher in viability index: 0.656 for the first, 0.792 for the second.

Going from `Cc1cc(C)cc(C(=O)Nc2c3c(nn2-c2cccc(C)c2C)CS(=O)(=O)C3)c1` to `COC(=O)c1cccc(-c2cc(Cl)c3c(c2)CC(CNC(=O)c2c(C)noc2C)O3)c1` (stereo not given), the viability index falls from 1.08 to 0.702.

First: Cc1cc(C=C2SC(=Nc3ccccc3)NC2=O)c(C)n1-c1ccccc1
Second: CN(C)C(=O)C1C2NC(=S)N(c3ccccc3)C1(C)Oc1ccccc12 (stereo not given)
The viability index of the first is lower: 0.833 for the first, 1.33 for the second.

Compared with `O=C(c1ccc([N+](=O)[O-])cc1)N1CCC(c2nc(O)c3nnn(Cc4c(F)cccc4Cl)c3n2)CC1`, `Cc1nnc2sc(SCc3ccc([N+](=O)[O-])cc3)nn2c1=O` is lower in viability index: 0.899 for the first, 0.735 for the second.

First: Cc1cc(Nc2ccc(Cl)c(Cl)c2)n2nc(C)nc2n1
Second: Cc1cc(C(=O)Nc2cnn(Cc3ccc(Cl)cc3Cl)c2)no1
The viability index of the first is higher: 1.09 for the first, 0.952 for the second.

Compared with `COc1ccc(-n2nc(C(=O)NCCC3=CCCCC3)c3ccccc3c2=O)cc1`, `COc1ccc(-n2nc(C(=O)NCC(=O)NCCCN3CCOCC3)c3ccccc3c2=O)cc1Cl` is lower in viability index: 1.13 for the first, 0.819 for the second.

Going from `CC(=O)Nc1ccc(N2C(=O)CSC2c2ccc(Br)cc2)cc1` (stereo not given) to `CCC(=O)Nc1ccc2nc(SCC(=O)Nc3ccc(C(C)=O)cc3)sc2c1`, the viability index falls from 1.07 to 0.966.

First: COc1ccc(C2CC(=O)C3=C(C2)NC(C)=C(C(=O)OC2CCCC2)C3c2ccccc2Cl)cc1OC (stereo not given)
Second: CCCOC(=O)C1=C(C)NC2=C(C(=O)CC(c3ccc(OC)cc3)C2)C1c1ccccc1Cl (stereo not given)
The viability index of the first is higher: 0.436 for the first, 0.374 for the second.

Compared with `O=C1CC(c2cccc([N+](=O)[O-])c2)c2cc3c(cc2N1)OCO3` (stereo not given), `CC(C)c1ccc(OCC(=O)NN=Cc2cccc([N+](=O)[O-])c2)cc1` is higher in viability index: 0.839 for the first, 1.1 for the second.

First: N#Cc1ccc2c(c1)nc1c3ccc4c5c(ccc(c(=O)n21)c53)C(=O)NC4=O
Second: CCc1c(C)c(C#N)c2nc3ccccc3n2c1NCc1ccccc1
The viability index of the first is lower: 0.224 for the first, 0.521 for the second.

Going from `COc1ccc(C2c3[nH]c4ccccc4c3C[C@H]3C(=O)N(CCC(C)C)CC(=O)N23)cc1` (stereo not given in full) to `COc1ccc(CN2CSC3=C(C#N)C(c4cccc(OC)c4)CC(=O)N3C2)cc1` (stereo not given), the viability index rises from 0.803 to 0.992.

First: O=C(NCc1cccnc1)[C@@H]1C[C@H](NC2CCN(CCc3ccccc3)CC2)CN1Cc1ccc(Cl)cc1
Second: C=CC1(C)CC23CC(C(OC(=O)c4ccccc4)c4ccnc5ccccc45)N2CCC13 (stereo not given)
The viability index of the first is lower: 0.696 for the first, 0.779 for the second.

Going from `COCCNC(=S)N(Cc1ccc(F)cc1)Cc1cc2ccc(C)c(C)c2[nH]c1=O` to `CCN(CC)CCCN(Cc1cc2cc(OC)c(OC)cc2[nH]c1=O)C(=S)Nc1cccc(Cl)c1`, the viability index rises from 0.746 to 0.882.

Going from `O=C(CC1OC(=O)c2ccccc21)c1ccc(Cl)cc1` (stereo not given) to `CCCc1ccc(C(=O)NC(=O)c2ccccc2O)cc1`, the viability index rises from 0.496 to 1.05.

Compared with `COc1cc2nc(Nc3ccc(F)cc3)nc(N)c2cc1OC`, `COc1cc2nc(NCCCOC(C)C)n3nc(-c4ccccc4)nc3c2cc1OC` is lower in viability index: 0.787 for the first, 0.667 for the second.

Compared with `COc1ccc(C=C2N=C(c3ccc(Cl)cc3)N(c3cc(Cl)ccc3C)C2=O)cc1OC`, `COc1cc(C=C(C#N)c2nc3ccccc3[nH]2)ccc1OCc1ccc(Cl)cc1` is higher in viability index: 1.03 for the first, 1.05 for the second.

Compared with `CC(C)c1ccc(C=CC(=O)NCc2ccco2)cc1`, `COC(=O)c1ccc(C=NNc2cc(C)nc3ccc(OC)cc23)cc1` is lower in viability index: 0.694 for the first, 0.0573 for the second.

Compared with `CC1(C)Cc2c(oc3ncn(CCn4cnc5oc6c(c5c4=N)CC(C)(C)SC6)c(=N)c23)CS1`, `Cc1c2c(n3c(nc4ccccc43)c1C#N)N(CCN(C)C)CC2` is lower in viability index: 0.748 for the first, 0.674 for the second.

Going from `CC[n+]1cccc2ccc3cccnc3c21` to `c1ccc2cc3c(Nc4ccc(N5CCCCC5)cc4)ccnc3cc2c1`, the viability index rises from 0.601 to 0.838.

Compared with `Cc1cccc(-n2c(CNC(=O)c3ccc(S(=O)(=O)N4CCCCC4)cc3)nnc2SCC(=O)Nc2nccs2)c1`, `Cc1cccc(OCC(=O)Nc2cccc(NC(=O)COc3cccc(C)c3)n2)c1` is lower in viability index: 1.06 for the first, 0.926 for the second.

Compared with `CCOC(=O)C(=CNc1ccccc1[N+](=O)[O-])C(=O)OCC`, `CCOC(=O)c1c(NC(=O)c2ccc([N+](=O)[O-])cc2[N+](=O)[O-])sc2c1CCCC2` is lower in viability index: 0.954 for the first, 0.815 for the second.

First: COc1cc(CNCCCN(C)C)ccc1OCc1ccc(F)cc1Cl
Second: COC(=O)[C@@H]1C[C@@H](NC(=O)c2ccc(OC)cc2OC)CN1Cc1ccc(C)cc1C
The viability index of the first is lower: 0.323 for the first, 0.643 for the second.

Going from `COc1cccc2c1C(=O)c1c(O)c3c(c(O)c1C2=O)CC(O)(C(=O)CO)CC3OC1CC(N)C(O)C(C)O1` (stereo not given) to `CCOC(=O)c1c(-c2ccccc2)oc2c1C(=O)c1ccccc1C2=O`, the viability index rises from 0.192 to 0.461.

Going from `CCOC(=O)CCCCC(=O)c1[nH]c(=O)[nH]c1Cn1ccnc1` to `CCN(CC)CCCN(Cc1cc2c(C)cc(C)cc2[nH]c1=O)C(=S)NCCCN(C)C`, the viability index rises from 0.354 to 0.91.

Going from `O=C(NCCCN1CCCC1=O)C(=O)NCC(c1ccco1)N1CCOCC1` (stereo not given) to `CCCCC(CC)C(=O)N1CCN(C(CC)c2nc3ccccc3c(=O)n2C)CC1` (stereo not given), the viability index falls from 0.975 to 0.911.

Going from `COc1ccc(OCCOCCN2CCN(C)CC2)cc1` to `COc1ccc(-n2c(SC(C)C)nc3sc4c(c3c2=O)CCN(C)C4)cc1`, the viability index falls from 0.963 to 0.623.

Compared with `OC(CNC1CCCCC1)Cn1c2ccc(Cl)cc2c2cc(Cl)ccc21` (stereo not given), `CCN1CCN(CCN2C(=O)C3C(C(=O)Nc4ccc(C(C)C)cc4)C4C=CC3(O4)C2C(=O)NC2CCCCC2)CC1` (stereo not given) is higher in viability index: 0.378 for the first, 1.06 for the second.

Compared with `NC12CC3CC(C1)CC(SSC14CC5CC(CC(N)(C5)C1)C4)(C3)C2`, `COCCNC(=O)[C@@H]1C[C@@H](NCCC2=C(C)CCCC2(C)C)CN1C(C)C` is higher in viability index: 0.11 for the first, 1.13 for the second.

First: COc1ccccc1NC1=C(N2CCCCC2)C(=O)c2ccccc2C1=O
Second: O=C1N=C(N2CCOCC2)S/C1=C/c1cccc2ccccc12
The viability index of the first is lower: 0.197 for the first, 0.827 for the second.

Going from `CN(C)CCNC(=S)Nc1cccc(C(F)(F)F)c1` to `COCCNC(=O)c1ccc(NCCc2ccc(Cl)cc2)c(S(=O)(=O)Nc2cccc(C(F)(F)F)c2)c1`, the viability index rises from 0.841 to 1.

First: CCCc1c(C)nc2ccc(Br)cc2c1O
Second: COc1ccc2c(Cl)c(C(=O)Nc3cc(C)on3)sc2c1Cl
The viability index of the first is lower: 0.569 for the first, 0.845 for the second.

Compared with `O=[N+]([O-])c1ccc(C=NNc2nc3ccccc3[nH]2)cc1`, `O=C(Cc1ccc(Cl)cc1)NNS(=O)(=O)c1ccc([N+](=O)[O-])cc1` is lower in viability index: 1.14 for the first, 0.939 for the second.

Going from `CCc1ccc2[nH]c(=O)c(CN(CCN(CC)CC)C(=S)NCCCN(CC)CC)cc2c1` to `Brc1ccc(Nc2nc3ccccc3nc2Nc2ccc(Br)cc2)cc1`, the viability index falls from 1.18 to 0.645.
